# Test results taken from publication PMC6919601, “Identification of Plasmodium dipeptidyl aminopeptidase allosteric inhibitors by high throughput screening” (PLoS ONE, 2019).
# In all, about 110,000 compounds went through this assay and about 230 (0.21%) showed an effect of 50% or more. The list shows a part of the results.
# Molecular target: DPAP1 (Plasmodium falciparum, UniProt Q8IIJ9)
# Test: primary screen, percent inhibition; read by cleavage of a fluorogenic dipeptide substrate; higher = more effect of the substance
# Parameters: species or system P. falciparum D10 trophozoite lysates; single well
# 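Note: 30 min substrate incubation versus DMSO and 10 µM JCP410 controls.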
# Sequence of DPAP1 (Q8IIJ9 whole entry, looked up): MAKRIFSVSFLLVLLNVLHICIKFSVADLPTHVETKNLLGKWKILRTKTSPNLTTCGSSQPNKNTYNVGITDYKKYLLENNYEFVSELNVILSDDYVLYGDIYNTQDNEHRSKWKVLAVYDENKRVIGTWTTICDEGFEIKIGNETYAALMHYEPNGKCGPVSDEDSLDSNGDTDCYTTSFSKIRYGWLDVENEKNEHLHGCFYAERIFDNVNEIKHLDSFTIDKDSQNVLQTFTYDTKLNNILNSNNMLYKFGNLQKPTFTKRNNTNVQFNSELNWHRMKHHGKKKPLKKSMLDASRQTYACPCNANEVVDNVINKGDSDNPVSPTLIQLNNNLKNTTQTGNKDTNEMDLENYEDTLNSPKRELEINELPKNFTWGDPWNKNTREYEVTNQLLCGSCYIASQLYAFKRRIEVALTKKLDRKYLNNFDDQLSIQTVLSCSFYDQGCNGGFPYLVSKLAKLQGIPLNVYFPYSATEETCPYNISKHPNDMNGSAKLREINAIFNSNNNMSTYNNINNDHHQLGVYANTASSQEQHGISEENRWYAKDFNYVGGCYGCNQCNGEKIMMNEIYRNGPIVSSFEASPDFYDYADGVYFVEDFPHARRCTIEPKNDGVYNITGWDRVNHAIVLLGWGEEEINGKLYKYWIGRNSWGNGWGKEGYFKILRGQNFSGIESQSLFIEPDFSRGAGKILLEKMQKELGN
row,Compound,% Inhibition @ 10 uM [%]
1,Cc1ccc(CNc2nc(S)nc3ccccc23)o1,5.43
2,Cc1cccc(NC(=O)c2cnn(C)c2)c1C,-10
3,CN1CCN(CC(=O)Nc2ccc(OC(F)(F)Cl)cc2)CC1,-0.564
4,Cn1c(=O)c2c(nc(SCc3nc(O)c4ccccc4n3)n2Cc2ccccc2F)n(C)c1=O,7.16
5,CCOc1cc2c(cc1OCC)C(c1ccccc1F)NCC2 (centres unmarked),0.231
6,COc1ccc(C2=NN(c3nc(-c4ccc(Cl)cc4)cs3)C(c3ccc(OC)cc3)C2)cc1 (centres unmarked),-2
7,O=C(CC1Sc2ccccc2NC1=O)Nc1ccc(F)cc1 (centres unmarked),0.317
8,Cc1nc(O)c2c(n1)OC(N)=C(C#N)C2c1ccccc1F (centres unmarked),1.26
9,COc1ccc(OC)c(C2CC(=O)N=C(NC(=O)c3cc(OC)c(OC)c(OC)c3)N2)c1 (centres unmarked),3.89
10,CSc1nc(O)c2c(n1)N=C1CCCC(O)=C1C2c1ccc(OCc2ccccc2)cc1 (centres unmarked),5.85
11,CCOC(=O)c1ccc(CNS(=O)(=O)c2ccc(S(=O)(=O)N3CCOCC3)cc2)o1,-6.84
12,CCC1CCCCN1C(=O)CSc1nnc(CNC(=O)c2c(F)cccc2Cl)o1 (centres unmarked),0.163
13,Cc1ccc(C2C3=C(O)c4ccccc4C3=Nc3c2c(=O)[nH]c(=O)n3C)cc1Cl (centres unmarked),8.59
14,O=C(Nc1nnc(S(=O)(=O)N2CCCCC2)s1)c1cccc(Br)c1,-5.37
15,Cc1cccc(CN2CCOCC2)c1,2.7
16,COCCn1c(=N)c(C(=O)NCc2ccccc2)cc2c(=O)n3cc(C)ccc3nc21,0.279
17,Cc1occc1C(=O)Nc1ccccc1C(N)=O,-7
18,CCOC(=O)c1ccc(OCC2c3cc(OC)c(OC)cc3CCN2C(=O)CC(C)C)cc1 (centres unmarked),-3.92
19,COc1ccccc1CNC(=O)c1cc2c(Cl)nc3ccccc3c2s1,-2.14
20,CC(CCc1ccccc1)NC(=O)Cn1ncc2c(Cl)cccc21 (centres unmarked),0.596
21,COc1ccc(CCNC(=O)c2cc3c(s2)-c2ccccc2S(=O)(=O)C3)cc1OC,-2.17
22,CCOc1cc(C(=O)NC(C)C)cc(OCC)c1OCC,-7.89
23,Cn1c(/C(C#N)=C/c2ccc(N)cc2)nc2cccnc21,-3.69
24,COc1ccc(/C=c2\sc3nc(-c4cccnc4)nn3c2=O)cc1OC,5.12
25,COc1ccccc1CNC(=O)c1ccc(Cl)c(Cl)c1,-10.4

row,Compound,% Inhibition @ 10 uM [%]
1,COc1cc(OC)c(OC)cc1CNCCc1ccccc1,-6.59
2,CCN1C(=O)N/C(=C\c2cc(C)n(-c3ccc(C)cc3)c2C)C1=O,0.683
3,COc1ccc(C(=O)NCC2OCCc3ccccc32)c(O)c1 (centres unmarked),2.09
4,O=C(c1c(F)cccc1F)N1CCN(C/C=C/c2ccccc2)CC1,-3.52
5,Cc1onc(-c2c(Cl)cccc2Cl)c1C(=O)N1CCN(C)CC1,-1.32
6,CCOc1ccc(C2C(C(=O)Nc3cccnc3)=C(C)Nc3nc(-c4cccs4)nn32)cc1OC (centres unmarked),6.73
7,Cc1cc(C)n(-c2nc(N(C)C)nc(N3CCOCC3)n2)n1,-5.91
8,Nc1ncnc2[nH]c(N3CCOCC3)nc12,2.22
9,CCc1nnc(NC(=O)CSc2nnc(-c3ccc(OC)cc3)c(-c3ccc(OC)cc3)n2)s1,-6.44
10,CCOc1cc(C2NC(=O)NC(C)=C2C(=O)Nc2ccccc2C)ccc1O (centres unmarked),9.5
11,Cc1cc(C)c(Cc2c(C)nc3c(C(=O)NC4CC4)cnn3c2C)c(C)c1,-5.8
12,COc1ccc(-c2nc(CS(=O)(=O)CC(=O)NCCCN3CCOCC3)c(C)o2)cc1,1.55
13,COc1ccccc1-c1cc(C(=O)N[C@@H](CC(C)C)C(=O)NCC#N)cc(-c2ccccc2OC)c1,1.71
14,CCOc1ccccc1/C=c1\sc2nc(-c3cc(OC)c(OC)c(OC)c3)nn2c1=O,-2.98
15,Cc1ccccc1Cn1c(C(F)(F)F)nc2ccccc21,-0.764
16,COc1ccc(S(=O)(=O)NC(CC(=O)N2CCCCCC2)c2ccco2)cc1 (centres unmarked),4.47
17,O=C(Nc1cccc(F)c1)C1CC(=O)N(c2ccccc2)C1 (centres unmarked),4.3
18,COc1c(Br)cc(Br)cc1/C=C1/C(=O)N=C(N)N1C,-4.51
19,C=CCc1cc(/C=C2/NC(=O)NC2=O)cc(OC)c1O,-1.25
20,O=C1C2C3CCC(C3)C2C(=O)N1c1ccc2ccccc2c1 (centres unmarked),-3.83
21,O=C1NC(=S)N(c2ccccc2)C(=O)/C1=C/c1ccc(O)cc1,1.43
22,O=c1c2nccnc2nc(SCc2ccc(Cl)cc2)n1Cc1ccco1,1.96
23,COc1cc(S(=O)(=O)n2cnc3ccccc32)ccc1Br,-2.98
24,Clc1ccc(N2CCN(Cc3cccc4ccccc34)CC2)cc1,-1.86
25,Cc1cccc(-c2noc(CN(C(=O)c3ccc(C)cc3Cl)C(C)C)n2)c1,1.66
